Laboratory results reported in article PMC10284917.
Results are given in words; binding and its absence hold for the method and conditions named. In cells and extracts the contact can be indirect. Some binding calls cover weakened binding; strength is not graded here.

Protein sequences, listed by entry. Tags and fused reporters are not part of them.
UniProt Q27J81: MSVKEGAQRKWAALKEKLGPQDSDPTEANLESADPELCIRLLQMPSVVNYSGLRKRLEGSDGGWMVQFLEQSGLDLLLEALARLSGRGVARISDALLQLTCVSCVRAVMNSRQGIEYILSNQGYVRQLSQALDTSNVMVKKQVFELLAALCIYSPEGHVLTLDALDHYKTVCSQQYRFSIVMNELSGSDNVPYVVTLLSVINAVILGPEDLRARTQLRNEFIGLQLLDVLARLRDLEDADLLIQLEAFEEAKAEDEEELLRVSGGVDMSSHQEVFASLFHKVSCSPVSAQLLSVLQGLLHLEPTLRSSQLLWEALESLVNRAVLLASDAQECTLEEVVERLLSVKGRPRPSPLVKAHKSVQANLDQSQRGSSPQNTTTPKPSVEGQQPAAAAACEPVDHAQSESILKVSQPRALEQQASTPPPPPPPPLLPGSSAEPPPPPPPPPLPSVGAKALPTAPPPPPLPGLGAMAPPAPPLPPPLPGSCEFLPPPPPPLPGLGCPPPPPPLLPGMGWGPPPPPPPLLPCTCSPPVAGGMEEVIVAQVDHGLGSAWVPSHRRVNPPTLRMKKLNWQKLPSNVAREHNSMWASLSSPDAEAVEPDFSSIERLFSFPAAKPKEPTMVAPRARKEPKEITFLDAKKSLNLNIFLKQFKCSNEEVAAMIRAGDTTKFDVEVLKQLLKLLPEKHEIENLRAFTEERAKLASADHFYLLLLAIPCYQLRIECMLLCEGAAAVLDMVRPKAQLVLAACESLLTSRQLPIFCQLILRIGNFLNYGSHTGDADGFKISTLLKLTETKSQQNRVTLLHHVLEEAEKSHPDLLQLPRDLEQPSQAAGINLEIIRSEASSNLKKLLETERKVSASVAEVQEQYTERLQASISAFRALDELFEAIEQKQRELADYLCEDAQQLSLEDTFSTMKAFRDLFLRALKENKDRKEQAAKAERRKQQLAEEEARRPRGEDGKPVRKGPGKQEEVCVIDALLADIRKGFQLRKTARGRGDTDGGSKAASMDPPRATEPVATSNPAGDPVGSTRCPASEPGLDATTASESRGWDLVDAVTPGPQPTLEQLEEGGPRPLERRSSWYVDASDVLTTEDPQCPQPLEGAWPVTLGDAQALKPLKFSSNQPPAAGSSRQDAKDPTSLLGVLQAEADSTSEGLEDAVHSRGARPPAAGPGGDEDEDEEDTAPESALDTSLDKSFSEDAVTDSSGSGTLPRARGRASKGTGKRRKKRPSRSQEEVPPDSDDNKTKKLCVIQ
UniProt Q969H0: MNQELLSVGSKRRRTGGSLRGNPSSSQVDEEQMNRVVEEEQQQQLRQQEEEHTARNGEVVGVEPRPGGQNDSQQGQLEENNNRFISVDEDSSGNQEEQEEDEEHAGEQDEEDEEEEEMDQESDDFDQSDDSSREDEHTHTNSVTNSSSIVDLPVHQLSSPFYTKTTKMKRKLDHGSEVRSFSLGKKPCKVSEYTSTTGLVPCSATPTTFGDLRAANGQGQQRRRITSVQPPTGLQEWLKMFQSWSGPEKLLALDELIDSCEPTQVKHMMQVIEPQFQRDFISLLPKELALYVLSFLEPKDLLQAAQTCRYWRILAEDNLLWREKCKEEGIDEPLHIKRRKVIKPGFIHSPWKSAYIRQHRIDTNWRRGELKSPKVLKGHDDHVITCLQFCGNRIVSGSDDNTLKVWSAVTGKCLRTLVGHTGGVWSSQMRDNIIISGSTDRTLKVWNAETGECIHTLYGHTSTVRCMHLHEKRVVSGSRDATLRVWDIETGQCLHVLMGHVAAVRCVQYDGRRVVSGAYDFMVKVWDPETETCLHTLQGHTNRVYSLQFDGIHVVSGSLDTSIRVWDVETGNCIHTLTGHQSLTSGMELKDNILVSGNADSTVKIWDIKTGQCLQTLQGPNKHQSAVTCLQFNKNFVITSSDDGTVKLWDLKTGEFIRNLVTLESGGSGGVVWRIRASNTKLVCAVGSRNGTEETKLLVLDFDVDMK
UniProt O43791: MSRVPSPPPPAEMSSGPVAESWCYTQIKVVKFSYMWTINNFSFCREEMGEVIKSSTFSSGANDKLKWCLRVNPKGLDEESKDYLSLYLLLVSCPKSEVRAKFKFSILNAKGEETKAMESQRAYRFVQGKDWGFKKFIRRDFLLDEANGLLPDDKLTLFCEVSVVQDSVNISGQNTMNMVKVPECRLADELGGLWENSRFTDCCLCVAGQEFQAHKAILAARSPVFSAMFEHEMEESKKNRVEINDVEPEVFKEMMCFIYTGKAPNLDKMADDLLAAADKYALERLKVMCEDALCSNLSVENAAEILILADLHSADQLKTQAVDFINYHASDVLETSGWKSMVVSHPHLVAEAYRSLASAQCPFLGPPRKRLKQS

Assays:
[1] = biological target: FLAG-INF2 (INF2-CAXX, ER-localized inverted formin 2) (UniProt Q27J81); experiment: co-IP; anti-FLAG M2 agarose beads, lysates (RIPA (Low) Lysis Buffer) of HEK-293T cells transfected with both constructs, 20 μM MG132 for 8 h before harvesting; 4 h at 4 °C; washed with BC100 buffer (20 mM Tris-Cl pH 7.9, 100 mM NaCl, 0.2 mM EDTA, 20% glycerol) with 0.2% Triton X-100; eluted with FLAG peptide; western blotting
[2] = biological target: T1, endogenous FBXO7 (AN3 CA cells) (human (endogenous in AN3 CA)) (UniProt Q9Y3I1); experiment: co-IP; endogenous proteins, AN3 CA cells lysed in RIPA (Low) lysis buffer; anti-FBXO7/IgG Protein A/G magnetic beads, 4 h at 4 °C; eluted with SDS-PAGE loading buffer; western blotting
T1 sequence: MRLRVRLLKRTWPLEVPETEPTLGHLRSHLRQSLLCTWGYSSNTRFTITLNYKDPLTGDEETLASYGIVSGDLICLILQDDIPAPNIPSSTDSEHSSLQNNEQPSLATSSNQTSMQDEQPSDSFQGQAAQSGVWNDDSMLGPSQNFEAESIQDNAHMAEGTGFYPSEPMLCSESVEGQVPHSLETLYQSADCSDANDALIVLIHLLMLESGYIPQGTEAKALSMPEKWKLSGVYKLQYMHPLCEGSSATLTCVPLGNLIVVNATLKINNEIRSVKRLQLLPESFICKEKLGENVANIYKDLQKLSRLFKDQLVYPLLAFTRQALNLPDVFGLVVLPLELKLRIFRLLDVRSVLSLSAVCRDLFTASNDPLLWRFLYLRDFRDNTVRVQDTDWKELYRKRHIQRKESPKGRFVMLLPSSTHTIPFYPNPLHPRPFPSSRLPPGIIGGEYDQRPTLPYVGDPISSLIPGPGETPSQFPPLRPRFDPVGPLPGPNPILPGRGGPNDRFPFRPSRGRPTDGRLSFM

[3] = biological target: FLAG-INF2 (INF2-CAXX, ER-localized inverted formin 2) (UniProt Q27J81); experiment: co-IP; anti-FLAG antibody, HEK-293T cells transfected with FLAG-INF2 plasmid or not; endogenous partners detected by western blotting

F-box and WD repeat domain-containing 7 (FBXW7) (from UniProt Q969H0 1-707)
binding [1]: no binding

endogenous INF2 (AN3 CA cells) (from UniProt Q27J81 1-1249)
binding [2]: binds

endogenous SPOP (HEK-293T cells) (from UniProt O43791 1-374)
binding [3]: binds
